Results taken from PubChem BioAssay AID485344 (National Center for Advancing Translational Sciences (NCATS), 2010).
The campaign covered roughly 340,000 compounds. About 6,900 (2%) were called active. No stated cut-off is given here; in the data, active means inhibition above about 30%; inactive means below that, where a call was filed. The entries are a selection whose mix differs from that of the whole data set. Entries without a call were filed so in the source.

Target: D(2) dopamine receptor (Homo sapiens) (UniProt P14416)
UniProt P14416, sequence (P14416 whole entry, looked up): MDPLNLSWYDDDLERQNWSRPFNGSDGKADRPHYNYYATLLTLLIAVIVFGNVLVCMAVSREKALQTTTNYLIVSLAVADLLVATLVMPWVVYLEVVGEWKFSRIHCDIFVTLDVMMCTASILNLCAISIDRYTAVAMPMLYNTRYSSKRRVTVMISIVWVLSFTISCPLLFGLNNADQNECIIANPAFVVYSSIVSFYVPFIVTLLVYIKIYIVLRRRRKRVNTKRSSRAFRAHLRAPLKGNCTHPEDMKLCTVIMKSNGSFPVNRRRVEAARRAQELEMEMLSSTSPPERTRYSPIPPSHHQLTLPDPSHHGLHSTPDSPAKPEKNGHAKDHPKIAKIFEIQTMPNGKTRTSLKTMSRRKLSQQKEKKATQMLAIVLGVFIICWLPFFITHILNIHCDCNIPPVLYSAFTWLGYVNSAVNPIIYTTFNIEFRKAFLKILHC
Assay: HTS Assay for Allosteric Antagonists of the Human D2 Dopamine Receptor: Primary Screen for Antagonists; further: 0% is about no effect
Conditions: HEK293 TREx D2 cells, calcium flux, dopamine EC80; at 10 µM; stronger effect = higher value
Method in brief: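 Measurement of antagonist activity uses fluorescent calcium dye in inducible HEK293 T-REx D2 cells: 10 s baseline, compound addition with 180 s read, EC80 dopamine addition with a further 180 s read.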

| Compound | inhibition |
| --- | --- |
| CCCCN1CCc2nc(N3CCN(C)CC3)ncc2C1 | -19% |
| O=C(NCCc1csc(-c2cccnc2)n1)c1ccc(F)c(F)c1 | -2.98% |
| Cc1nn(C(C)C(=O)NC2CCC(C)CC2)c(=O)c2cc3sccc3n12 (configuration not stated) | 1.37% |
| CN(C)c1ccc(CNC(=O)CCCn2ccc3cc(S(=O)(=O)N4CCCC4)ccc32)cc1 | 2.45% |
| COc1ccccc1N1CCN(C(=O)c2cn(C)c3ccc(S(=O)(=O)N4CCOCC4)cc3c2=O)CC1 | -19.5% |
| COc1ccc(Cl)cc1NC(=O)c1cc(C)nn1-c1ccccc1 | -8.22% |
| COc1cccc(N2CCN(S(=O)(=O)c3ccc4c(c3)CCCN4C(C)=O)CC2)c1 | -1.44% |
| Cc1ccc(Cc2nc3ccccc3nc2SCC(=O)N2CCCCC2C)cc1 (configuration not stated) | -19.1% |
| Oc1ccc(NCc2ccc(OCc3ccccc3Cl)cc2)cc1 | -13.7% |
| N#C/C(=C\c1c(Oc2ccc(Br)cc2)nc2ccccn2c1=O)c1nc2ccccc2s1 | 20.6% |
| COC(=O)c1cccc(NC(=O)Nc2cc(C(=O)NCc3cccc(F)c3)ccc2N2CCCC2)c1 | 22.1% |
| Cc1ccc(Cn2c(CCCNC(=O)C3CCCCC3)nc3ccccc32)cc1 | -7.12% |
| O=C(NC1CCCCC1)c1ccc(CSc2nc3cccnc3n2Cc2ccccc2F)cc1 | 13.1% |
| O=C(Cn1ncc2c(Cl)cccc21)NCc1cccc(Br)c1 | 1.25% |
| Cc1ccc(N2CC(NC(=O)C(=O)c3c[nH]c4ccccc34)CC2=O)cc1 (configuration not stated) | -24.8% |
| COc1ccccc1OCC(=O)NCC1(N(C)C)CCCCC1 | -4.24% |
| CC(C)CCNC(=O)c1ccc2c(c1)N(Cc1ccccc1F)C(=O)c1ccccc1S2=O (configuration not stated) | 5.34% |
| CC(=O)c1c(C)[nH]c(C(=O)COC(=O)C2CC2)c1C | active: 32.4% |
| CCOc1cc2c(cc1OCC)C(c1c(F)cccc1Cl)CC(=O)N2 (configuration not stated) | 22.3% |
| Nc1nonc1/C(=N/O)N1CCN(CCO)CC1 | active: 51.1% |
| O=C(NCCc1csc2nc(-c3ccc(F)cc3)nn12)c1ccco1 | -12% |

| Compound | inhibition |
| --- | --- |
| Cc1cccc(NC(=O)Cn2c(C(F)(F)F)nc3ccccc32)c1C | 0.17% |
| CCOC(=O)c1c(S(=O)(=O)N2CCC(C(=O)N3CCN(c4cc(C)ccc4C)CC3)CC2)c(C)n(C)c1C | -9.21% |
| Cc1sc2c(c1C)c(=O)n(-c1ccc(Cl)cc1)c(=O)n2Cc1c(F)cccc1Cl | -2.91% |
| COc1cc(C2C(C(=O)Nc3ccccc3)=C(C)Nc3nc(SCc4ccccc4F)nn32)cc(OC)c1OC (configuration not stated) | -6.68% |
| Cc1ccc(-c2cc(C(=O)N3CCN(c4ccccc4)CC3)c3ccccc3n2)cc1C | -4.96% |
| COC(=O)c1cc(NC(=O)CCc2c(C)nc3cc(-c4ccccc4)nn3c2C)cc(C(=O)OC)c1 | 7.57% |
| CC1CCN(S(=O)(=O)c2cc(C(=O)Nc3ccc(Br)cc3F)n(C)c2)CC1 | 2.36% |
| CCOc1ccccc1CNS(=O)(=O)c1csc(C(N)=O)c1 | 2.76% |
| CCN(CC)S(=O)(=O)c1ccc2c(c1)N(CC(=O)N1CCN(c3cc(Cl)ccc3C)CC1)C(=O)CO2 | 8.54% |
| CCc1ccccc1N1CC(c2nnc(NC(=O)c3ccco3)s2)CC1=O (configuration not stated) | 3.57% |
| CC(=O)OCc1cnc(C)c2oc(=O)c(C(=O)Nc3ccc(F)cc3C)cc12 | -11.4% |
| CC(=O)Nc1nonc1-c1nnc(SCC(=O)Nc2ccccc2Cl)n1C | 6.04% |
| COc1cc(NC(=O)c2cc(-c3ccccc3O)no2)cc(OC)c1OC | -9.73% |
| CCOc1ccc(CNC(=O)C2CCN(C3=NS(=O)(=O)C(c4ccc(C)cc4)=C3CC)CC2)cc1 | 16.5% |
| COc1ccc(C2CC(=O)c3cc(-c4nc(-c5ccc(Cl)cc5)cs4)c(=O)[nH]c3C2)cc1 (configuration not stated) | 9.92% |
| CC(C)NC(=O)Cn1ncn2c(cc3cc(F)ccc32)c1=O | -4.98% |
| Cc1ccccc1N1CCN(CCC(=O)Nc2ccc(F)cc2)CC1 | active: 78.1% |
| Clc1cccc(-c2nnc(CN3CCN(c4ccccn4)CC3)o2)c1 | -21.4% |
| Cc1cc(S(=O)(=O)Nc2cc3c(cc2N2CCOCC2)n(C)c(=O)n3C)ccc1F | -21.9% |
| COc1ccc(NC(=O)C(CC(C)C)NC(=O)C2CCCCC2)c(OC)c1 (configuration not stated) | 4.75% |
| CCc1nc2ccc(C(=O)NCCc3ccc(SC)cc3)cc2nc1CC | 19.4% |

| Compound | inhibition |
| --- | --- |
| CCN(C(=O)CCS(=O)(=O)c1cccc2nsnc12)c1cccc(C)c1 | 5.79% |
| O=C(Nc1nc2n(n1)C(c1ccc(F)cc1)C=C(c1ccc(Cl)cc1)N2)c1ccco1 (configuration not stated) | 24% |
| CCN(C(=O)c1cc2c(s1)-c1c(C)cccc1OC2)c1cc(C)ccc1C | -3% |
| CCOc1ccc2oc(=O)cc(CN3CCN(c4ccc(OC)cc4)CC3)c2c1 | -5.74% |
| COc1ccc(OC)c(NC(=O)Cn2c(=O)oc3cc(S(=O)(=O)NCc4ccccc4)ccc32)c1 | 12.7% |
| CC1(C)Cc2c(c(N3CCOCC3)nc3sc(C#N)c(N)c23)CS1 | active: 38.1% |
| O=C(NCC12CC3CC(CC(C3)C1)C2)c1cc2nc(-c3ccc(Cl)cc3)cc(C(F)(F)F)n2n1 | 7.13% |
| Cc1cccc(C)c1OCC(=O)Nc1nonc1-c1ccc(Br)cc1 | -7.22% |
| COc1ccc(CCNC(=O)Cc2c(C)c3cc(OC)c(OC)cc3oc2=O)cc1 | 1.18% |
| Cc1ccc(C(=O)Nc2ccc(-n3c(C)nc4ccccc4c3=O)cc2)cc1[N+](=O)[O-] | -5.86% |
| CNC(=O)c1ccc(Nc2nnc(-c3ccc(C)c(S(=O)(=O)NC(C)(C)C)c3)c3ccccc23)cc1 | 7.96% |
| CCc1ccc(-n2c(=O)c3cccnc3n2CC(=O)NCc2ccc(F)cc2)cc1 | -3.22% |
| O=C(NCc1cccc(F)c1)c1ccc(CS(=O)c2ccccc2Cl)o1 (configuration not stated) | 1.28% |
| CCOC(=O)N1CCc2c(sc3c2c(=O)n(Cc2ccccc2)c(=O)n3CC(=O)Nc2c(C)cccc2C)C1 | 1.81% |
| COc1ccccc1NC(=O)CCN1CCC(C(N)=O)CC1 | -7.38% |
| Cn1c(=O)c(=O)n(C)c2cc(S(=O)(=O)N3CCN(c4ccccc4F)CC3)ccc21 | -11.5% |
| CC(=O)c1cc(-c2ccccc2)n(CC(=O)NC2CCCCCC2)c1C | 7.79% |
| O=C(Nc1cccc(C(F)(F)F)c1)c1noc2c1CCc1ccccc1-2 | -15.8% |
| O=C(NCCc1ccc(Cl)cc1)c1cccn1-c1nnc(N2CCCCC2)s1 | 6.44% |
| O=C(Cn1c(=O)n(Cc2cccs2)c(=O)c2cccnc21)Nc1ccccc1F | -3.85% |
